Measurements taken from ChEMBL document CHEMBL1201862, “PubChem BioAssay data set” (2004).
Calls of active or inactive are those of the source. Cut-off read from the data, not from the text of the source: active = GI50 up to about 1.1 µM and inactive = higher.

How the values were obtained:
Test in all cases: cells
Assay type in all cases: functional
SN12K1 = details: Homo sapiens
P388/ADR = details: Mus musculus
P388 = details: Mus musculus

Measured: GI50

COc1cc2c(c(OC)c1OC)-c1ccc(OC)c(=O)cc1[C@@H](N)CC2 [CITOSTAL]
active: SN12K1 = 29 nM | P388/ADR 167 nM | P388 = 64 nM
